Target: T1, LILRB2 (c-terminally biotinylated, BPS Bioscience #100335) (UniProt Q8N423 22-460, limits assumed, C-terminal biotin)
T1 construct: Commercial biotinylated protein, immobilised on streptavidin plates at 5 µg/ml; also called immunoglobulin-like receptor subfamily B member 2; LILRB2 receptor
Test: ELISA: fusion protein titrated on biotinylated LILRB2 immobilised on streptavidin plates, detected with APC anti-human IgG

T1 sequence (Q8N423 22-460 limits assumed): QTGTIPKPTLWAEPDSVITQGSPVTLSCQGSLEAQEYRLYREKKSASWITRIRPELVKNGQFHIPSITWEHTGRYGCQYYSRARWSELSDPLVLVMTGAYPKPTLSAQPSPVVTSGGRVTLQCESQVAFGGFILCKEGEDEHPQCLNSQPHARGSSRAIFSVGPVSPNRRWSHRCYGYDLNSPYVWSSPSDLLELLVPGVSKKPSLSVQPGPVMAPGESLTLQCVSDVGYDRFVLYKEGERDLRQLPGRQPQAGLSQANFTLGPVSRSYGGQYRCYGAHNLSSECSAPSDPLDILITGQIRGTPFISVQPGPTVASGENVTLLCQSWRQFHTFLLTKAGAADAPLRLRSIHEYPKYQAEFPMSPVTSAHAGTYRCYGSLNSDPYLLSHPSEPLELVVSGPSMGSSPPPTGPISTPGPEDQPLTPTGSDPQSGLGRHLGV

| EC50 [nM] | Binder |
| --- | --- |
| 21 | HLA-B57.OC (open conformer of the non-variant HLA-B57:01 extracellular domain - IgG4 Fc fusion protein, separated from β2m) (Fc fusion, Open conformer: β2m was removed under acidic conditions (pH 3.0) and by size exclusion chromatography; also called HLA-B57-Fc; HLA-B57 open conformer) GSHSMRYFYTAMSRPGRGEPRFIAVGYVDDTQFVRFDSDAASPRMAPRAPWIEQEGPEYWDGETRNMKASAQTYRENLRIALRYYNQSEAGSHIIQVMYGCDVGPDGRLLRGHDQSAYDGKDYIALNEDLSSWTAADTAAQITQRKWEAARVAEQLRAYLEGLCVEWLRRYLENGKETLQRADPPKTHVTHHPISDHEATLRCWALGFYPAEITLTWQRDGEDQTQDTELVETRPAGDRTFQKWAAVVVPSGEEQRYTCHVQHEGLPKPLTLRWEPSSQSGGGGSGGGGS[letters of human IgG4 Fc with S228P (EU numbers) left out] |
| 8.3 | HLA-B57^(A46E/V97R).OC (open conformer of the variant HLA-B57 A46E/V97R extracellular domain - IgG4 Fc fusion protein, separated from β2m) (Fc fusion, Open conformer: β2m was removed under acidic conditions; also called HLA-B57^(A46E/V97R)-Fc; variant HLA-B57 IgG4 Fc fusion protein) GSHSMRYFYTAMSRPGRGEPRFIAVGYVDDTQFVRFDSDAASPRMEPRAPWIEQEGPEYWDGETRNMKASAQTYRENLRIALRYYNQSEAGSHIIQRMYGCDVGPDGRLLRGHDQSAYDGKDYIALNEDLSSWTAADTAAQITQRKWEAARVAEQLRAYLEGLCVEWLRRYLENGKETLQRADPPKTHVTHHPISDHEATLRCWALGFYPAEITLTWQRDGEDQTQDTELVETRPAGDRTFQKWAAVVVPSGEEQRYTCHVQHEGLPKPLTLRWEPSSQSGGGGSGGGGS[letters of human IgG4 Fc with S228P (EU numbers) left out] |

Source: patent EP4129323A1 (ImmunOs Therapeutics AG, dated 2023)
